Data: PMC12136788
The other results are listed elsewhere or left out.

B1: chr1:27861377:27861378:-_ENSG00000126705_ENST00000374011|hu_mus|FALSE|FALSE (ssRNA)
RNA: GGGAGUUCUACAGUCCGACGAUCGGGGCCGCAGGGGGUGCAAGGGGCAGGUGGGAGGCAGAGGGGCAGGUGCUCCUGCCAGAGGACGAUGUGGACGCUGGGAGGGGUCUUGGCAUUGCUCUUCUGAAAGCCAGGAACAAAACCCAACAGAGGAUUGAGCAUCA
B2: chr3:179287964:179287965:+_ENSG00000136518_ENST00000429709|hu_hu|hu_hu_hu_mus_True|18_78 (ssRNA)
RNA: GGGAGUUCUACAGUCCGACGAUCCUUGAGUGGUGAGAUGGCCUCCAUGUUCUCCCUCGGAACACGCAGGGCAUUGGUGUCUAUGUAGUAGGUGGGCCCGCCCUGCUUGCCUUUGUCGCCAUCUAUUUCCAUCAUUGUACUUCCCAACAGAGGAUUGAGCAUCA
B3: chr5:107067165:107067166:-_ENSMUSG00000049606_ENSMUST00000112696|mus_mus|FALSE|FALSE (ssRNA)
RNA: GGGAGUUCUACAGUCCGACGAUCAACUAAAGCAGAGGUAGGUACUUUUUUAAUGGAAUGGGUUGGAUUCUUAGCAUGUGCUACAUCUGAUAACAAAAACAGAACUUGGUGUUGACUUGCUUUUUGUGGUGUAGACAGCUGAUGCAACAGAGGAUUGAGCAUCA
B4: chr15:73134924:73134925:-_ENSMUSG00000022607_ENSMUST00000110036|mus_mus|FALSE|FALSE (ssRNA)
RNA: GGGAGUUCUACAGUCCGACGAUCGUCAAAUCUGUACACAGGAGAAAGAAUCUCAAAGAAUUUCAGGAUGCUUUCUUCUCUAUUAAGGUUGGCAAACUGCCUGAAUGUUUGCUGGAUCAGCUUUCUUAGUGUUUUGGCCUUGACCAACAGAGGAUUGAGCAUCA
B5: chr6:108533379:108533380:-_ENSG00000112335_ENST00000426155|hu_mus|motif|central (ssRNA)
RNA: GGGAGUUCUACAGUCCGACGAUCUGCUUCUUCUCACCAAACUCAGGCAUGUCUUAUUUUAGAUGGAGUAUAGCUUUUAUCGGUAAUUUCAUCCUGUAAAAACAUGUGAAGACAACGUUCAUUCUGGGCCAGAGGAUGACCAGCCAACAGAGGAUUGAGCAUCA
B6: chr1:39494564:39494565:+_ENSG00000168653_ENST00000372967|hu_hu|hu_hu_hu_mus_True|8_108 (ssRNA)
RNA: GGGAGUUCUACAGUCCGACGAUCAUGUGCACGUCUCAUCGUUUUGUACCGAAGCAAGCACUCUUCGAAGUCAUCGAACUCUAUCUUGCACUCCUUUUUCGCCCGGGUCCCACCGAUCCCGUGUGCACAUUCUAUCCACUCUUUCAACAGAGGAUUGAGCAUCA

Target: T1, UNK ZnF1-3 (human, UniProt Q9C0B0 31-174)
T1 sequence: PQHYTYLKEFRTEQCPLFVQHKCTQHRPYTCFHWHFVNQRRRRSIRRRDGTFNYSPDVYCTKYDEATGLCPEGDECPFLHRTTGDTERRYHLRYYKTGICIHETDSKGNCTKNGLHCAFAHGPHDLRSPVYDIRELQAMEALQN
Experiment: nsRBNS (natural sequence RNA bind-n-seq); RBNS binding buffer (assumed for nsRBNS): 25 mM Tris pH 7.5, 150 mM KCl, 3 mM MgCl2, 0.01% Triton X-100, 500 ug/ml BSA, 20 U/ml SUPERase-In, 4 C; UNK is unkempt and MSI1 is Musashi-1; names of the RNAs are library labels; protein concentration not given here; high values mean tight binding

Binder | binding signal
B1 | 2.4 enrichment R
B2 | 0.342 enrichment R
B3 | 1.19 enrichment R
B4 | 1.04 enrichment R
B5 | 1.25 enrichment R
B6 | 0.498 enrichment R
